Inconclusive means that the source gave no clear call. Such entries were picked first, then a sample of the others. No potency is given beside an inconclusive call; the fits are too rough. Activity calls are given as the source filed them. Calls come from the whole dose curve; as a rule, active = well fitted inhibition curve with a large enough effect; inconclusive = small, poorly fitted or top-dose-only effect; inactive = no such curve, though single readings can be large or run the other way.
Target: Rap guanine nucleotide exchange factor 3 (Homo sapiens) (UniProt O95398)
UniProt O95398, sequence (O95398 whole entry, looked up): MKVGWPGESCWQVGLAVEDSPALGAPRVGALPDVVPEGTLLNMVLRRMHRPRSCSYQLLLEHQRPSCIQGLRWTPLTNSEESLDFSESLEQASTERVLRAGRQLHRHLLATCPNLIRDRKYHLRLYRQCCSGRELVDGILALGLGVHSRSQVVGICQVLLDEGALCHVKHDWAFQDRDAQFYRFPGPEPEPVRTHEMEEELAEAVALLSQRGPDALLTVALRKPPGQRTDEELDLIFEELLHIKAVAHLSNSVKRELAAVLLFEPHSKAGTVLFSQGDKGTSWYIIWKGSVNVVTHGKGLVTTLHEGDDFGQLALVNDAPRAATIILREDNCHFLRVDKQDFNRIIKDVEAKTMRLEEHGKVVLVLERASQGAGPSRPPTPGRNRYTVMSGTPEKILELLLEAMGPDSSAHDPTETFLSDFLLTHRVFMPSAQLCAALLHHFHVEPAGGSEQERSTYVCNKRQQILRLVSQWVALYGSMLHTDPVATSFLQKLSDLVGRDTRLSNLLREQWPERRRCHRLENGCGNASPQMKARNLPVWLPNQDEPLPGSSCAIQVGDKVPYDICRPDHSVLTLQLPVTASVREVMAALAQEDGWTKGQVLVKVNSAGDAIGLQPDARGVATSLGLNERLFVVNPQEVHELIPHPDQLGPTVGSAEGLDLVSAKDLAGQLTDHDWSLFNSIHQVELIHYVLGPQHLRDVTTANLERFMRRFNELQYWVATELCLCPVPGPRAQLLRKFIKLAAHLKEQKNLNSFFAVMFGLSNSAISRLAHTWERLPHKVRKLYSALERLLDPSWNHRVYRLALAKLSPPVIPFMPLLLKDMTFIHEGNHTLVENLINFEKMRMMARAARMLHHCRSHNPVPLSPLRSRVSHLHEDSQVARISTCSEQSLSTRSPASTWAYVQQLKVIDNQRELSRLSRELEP
Assay: Confirmatory qHTS for antagonist of cAMP-regulated guanine nucleotide exchange factor 3 (EPAC1) (AID 1645880); note: nearly all actives have a fitted effect of over 55% in size
Settings: EPAC1 Rap1B-BODIPY-GDP exchange, fluorescence; series mostly up to 115 µM
In short: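 Nucleotide exchange uses 100 nM EPAC1, 250 nM RAP1B-BODIPY-GDP and 50 uM GDP, with compounds in a concentration-titration series. After 5 min at room temperature, fluorescence (480 nm ex/540 nm em) is read every 5 min for 30 min. Data are normalized to control ATA and DMSO.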
Potency is the fitted concentration of half-maximal effect; tags give direction and shape of the fitted curve.

Structure (SMILES) | Potency
CNC(=O)c1ccc(Nc2nnc(-c3ccc(O)cc3)c3ccccc23)cc1 | inconclusive [inhibitor, partial curve]
Cc1cccc(C(=O)c2c(N)sc3c2CCCC3)c1 | inconclusive [inhibitor, partial curve]
Cc1ccc(SCc2nnc(N)s2)cc1 | inactive
CC(=N\NC(=O)c1ccccc1)/C(=N/O)C(=O)Nc1ccccc1 | active: 3.16 µM
Cc1cc(-c2ccc(/C=N/n3cnnc3)o2)ccc1Cl | inconclusive [inhibitor, partial curve]
O=C(Nc1cc(C(=O)Nc2ccccc2C(=O)O)cc(C(=O)Nc2ccccc2C(=O)O)c1)c1ccccc1 | active: 2.24 µM
CC(C)c1cccc(-c2ccc3c(c2)S(=O)(=O)c2cccc(C(=O)O)c2C3=O)c1 | inconclusive [inhibitor, partial curve, poor fit]
CCOC(=O)c1c(CC(C)C)csc1NC(C)=O | inconclusive [inhibitor, partial curve, poor fit]
C=CCc1cccc(CNc2c(C)cc(C)cc2C)c1O | inconclusive [inhibitor, partial curve, poor fit]
O=C(COC(=O)c1cccc(NS(=O)(=O)c2ccc(F)c(F)c2)c1)NC(=O)NC1CCCC1 | inconclusive [inhibitor, partial curve]
COc1ccccc1CNC(=O)C1(C)CCN1Cc1ccc(OC(F)(F)F)cc1 (stereo not given) | active: 67.5 µM
O=C1/C(=C/c2cccc(F)c2)SC(=S)N1NS(=O)(=O)c1ccccc1 | inconclusive [inhibitor, full curve, poor fit]
CCCC[C@@H]1C=C(C(=O)O)[C@H](c2ccc(Cl)c(Cl)c2)N1S(=O)(=O)c1ccc(C)cc1 | active: 84.9 µM
C=CCn1c(C)cc(C2=NNC(=Nc3ccc(C)cc3)SC2)c1C | inconclusive [inhibitor, partial curve, poor fit]
O=C(N[C@H](Cc1ccc(Cl)cc1)C(=O)O)OCC1c2ccccc2-c2ccccc21 | inconclusive [inhibitor, partial curve, poor fit]
CCOP(=O)(OCC)C(Cc1ccccc1)N=C(c1ccccc1)c1ccccc1 (stereo not given) | inconclusive [inhibitor, full curve, poor fit]
CC(=O)Nc1ccc(CNc2nc3cc(-c4ccsc4)sc3c(=O)n2C)cc1 | inactive
O=S(=O)(O)c1ccc(N=NNc2ccc(Br)cc2)cc1 | inactive
O=C(O)c1cccc(NC(=O)c2cn(-c3ccccc3)nc2-c2cc3ccccc3o2)c1 | active: 50.1 µM
COc1cccc(CC(=NO)c2cccc(OC)c2)c1 | inactive

Structure (SMILES) | Potency
CC1CCc2[nH]c3ccc(C(=O)N4CCCC(C(F)(F)F)C4)cc3c2C1 (stereo not given) | inconclusive [inhibitor, partial curve]
O=C(NCCOc1ccccc1-c1ccccc1)c1ccco1 | inactive
CCOC(=O)C(C)Sc1nc(-c2ccco2)cc(C(F)(F)F)c1C#N (stereo not given) | inconclusive [inhibitor, partial curve]
CN(Cc1cccc2ncccc12)C(=O)c1cnn(-c2nccc(-c3ccccc3F)n2)c1C1CC1 | inactive
O=C(O)CN1C(=O)/C(=C\c2cccc(OCc3ccc(Cl)cc3)c2)SC1=S | active: 75.7 µM
CCOc1ccccc1CNc1ncnc2ccc(-c3c(C)noc3C)cc12 | inconclusive [inhibitor, partial curve, poor fit]
O=C(NN1C(=O)/C(=C\c2ccc(O)c([N+](=O)[O-])c2)SC1=S)c1ccccc1Cl | active: 50.1 µM
CCC(Sc1nncn1C)C(=O)Nc1nnc(-c2ccc(Cl)cc2)s1 (stereo not given) | inactive
COc1ccc(C2c3ccsc3CCN2C(C)=O)cc1 (stereo not given) | inactive
COc1nc(C)cc(C)c1S(=O)(=O)c1ccc(Cl)cc1 | inactive
Oc1ccccc1CNc1ccc(OC(F)(F)F)cc1 | inconclusive [inhibitor, full curve]
O=C1C=C(N2CCOCC2)c2ccccc2C1=O | active: 39.8 µM
COc1cccc(C(=O)NC(=S)N2c3ccccc3CC2C)c1OC (stereo not given) | inactive
O=C(COc1ccccc1[N+](=O)[O-])Nc1cccc(C(=O)Nc2ccccc2C(=O)O)c1 | active: 23.9 µM
CC1=CC2C(CC1=O)C(C)=CCC2C(C)C (stereo not given) | inactive
Cc1ccc(-n2nnnc2SCC(=O)NCC2(N3CCOCC3)CCCCC2)cc1 | inactive
Cc1ccc(C)c(CSC2=NC(C)(C)Nc3ccccc32)c1 | inconclusive [inhibitor, partial curve, poor fit]
O=C(COc1ccc(F)cc1Br)NCC1COc2ccccc2O1 (stereo not given) | inconclusive [inhibitor, partial curve, poor fit]
O=c1cc(-c2c(O)c3ccccc3n(Cc3ccccc3)c2=O)[nH][nH]1 | inconclusive [inhibitor, partial curve]
CCCCCn1c(CCNC(=O)c2cccc(C)c2)nc2ccccc21 | inactive
